# Reference: the supplement of paper PMC8728848
# This is one part of the list.
# B1: Gal 8 (Homo sapiens) (protein)
# chain: MLSLNNLQNIIYNPVIPYVGTIPDQLDPGTLIVICGHVPSDADRFQVDLQNGSSVKPRADVAFHFNPRFKRAGCIVCNTLINEKWGREEITYDTPFKREKSFEIVIMVLKDKFQVAVNGKHTLLYGHRIGPEKIDTLGIYGKVNIHSIGFSFSSDLQSTQASSLELTEISRENVPKSGTPQLQTVSPSWDLQGHGSETFCSVLWTRVFLEIAFCRPIGLTVASFQSLPFAARLNTPMGPGRTVVVKGEVNANAKSFNVDLLAGKSKDIALHLNPRLNIKAFVRNSFLQESWGEEERNITSFPFSPGMYFEMIIYCDVREFKVAVNGVHSLEYKHRFKELSSIDTLEINGDIHLLEVRSW
# Columns and labels:
# Experiment in all cases: glycan array binding signal (z-score within array); higher = stronger binding
# Settings in all cases: glycan notation: IUPAC condensed, linker removed
# [1] = biological target: Gal6S(b1-3)GlcNAc6S
# Method in brief: (§1)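 Glycan array data were curated from 3228 arrays in the Consortium for Functional Glycomics database and kept only where the protein sequence was available. Glycan names were converted to IUPAC-condensed notation, and columns mapping to the same glycan were averaged. The binding signal is a within-array Z-score, averaged across arrays of the same protein sequence at different concentrations or buffers and across linkers. Negative Z-scores can be read as non-binding.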
# [2] = biological target: Gal6S(b1-4)Glc
# Method in brief: as §1
# [3] = biological target: Gal6S(b1-4)Glc6S
# Method in brief: as §1
# [4] = biological target: Gal6S(b1-4)GlcNAc
# Method in brief: as §1
# [5] = biological target: Gal6S(b1-4)GlcNAc6S
# Method in brief: as §1
# [6] = biological target: GalNAc(a1-3)Gal
# Method in brief: as §1
# [7] = biological target: GalNAc(a1-3)GalNAc
# Method in brief: as §1
# [8] = biological target: GalNAc(a1-3)GalNAc(a1-3)Gal(a1-4)Gal(b1-4)GlcNAc
# Method in brief: as §1
# [9] = biological target: GalNAc(a1-3)GalNAc(b1-3)Gal(a1-4)Gal(b1-4)Glc
# Method in brief: as §1
# [10] = biological target: GalNAc(b1-3)Gal
# Method in brief: as §1
# [11] = biological target: GalNAc(b1-3)Gal(a1-4)Gal(b1-4)GlcNAc
# Method in brief: as §1
# [12] = biological target: GalNAc(b1-3)Gal(a1-4)Gal(b1-4)GlcNAc(b1-3)Gal(b1-4)Glc
# Method in brief: as §1
# [13] = biological target: GalNAc(b1-3)Gal(a1-6)Gal(b1-4)Glc
# Method in brief: as §1
# [14] = biological target: GalNAc(b1-3)GalNAc
# Method in brief: as §1
# [15] = biological target: GalNAc(b1-3)GlcNAc
# Method in brief: as §1
# [16] = biological target: GalNAc(b1-4)Gal(b1-4)Glc
# Method in brief: as §1
# [17] = biological target: GalNAc(b1-4)GlcNAc
# Method in brief: as §1
# [18] = biological target: GalNAc(b1-4)GlcNAc(b1-2)Man
# Method in brief: as §1
# [19] = biological target: GalNAc(b1-4)GlcNAc(b1-2)Man(a1-3)[GalNAc(b1-4)GlcNAc(b1-2)Man(a1-6)]Man(b1-4)GlcNAc(b1-4)GlcNAc
# Method in brief: as §1
# [20] = biological target: GalNAc(b1-4)GlcNAc(b1-3)GalNAc(b1-4)GlcNAc
# Method in brief: as §1
# [21] = biological target: GalNAc(b1-4)GlcNAc6S
# Method in brief: as §1
# [22] = biological target: GalNAc(b1-6)GalNAc
# Method in brief: as §1
# [23] = biological target: GalNAc3S(b1-4)GlcNAc
# Method in brief: as §1
# [24] = biological target: GalNAc3S(b1-4)GlcNAc3S
# Method in brief: as §1
# [25] = biological target: GalNAc3S(b1-4)[Fuc(a1-3)]GlcNAc
# Method in brief: as §1
# [26] = biological target: GalNAc4S6S(b1-4)GlcNAc
# Method in brief: as §1
# [27] = biological target: GalNAc6S(b1-4)GlcNAc
# Method in brief: as §1
# [28] = biological target: Glc(a1-4)Glc
# Method in brief: as §1
# [29] = biological target: Glc(a1-4)Glc(a1-4)Glc(a1-4)Glc
# Method in brief: as §1
# [30] = biological target: Glc(a1-6)Glc(a1-6)Glc
# Method in brief: as §1
# [31] = biological target: Glc(a1-6)Glc(a1-6)Glc(a1-6)Glc
# Method in brief: as §1
# [32] = biological target: Glc(b1-4)Glc
# Method in brief: as §1
# [33] = biological target: Glc(b1-6)Glc
# Method in brief: as §1
# [34] = biological target: GlcA(b1-3)Gal
# Method in brief: as §1
# [35] = biological target: GlcA(b1-3)GlcNAc
# Method in brief: as §1
# [36] = biological target: GlcA(b1-6)Gal
# Method in brief: as §1
# [37] = biological target: GlcA3S(b1-3)Gal(b1-4)GlcNAc(b1-2)Man
# Method in brief: as §1
# [38] = biological target: GlcA3S(b1-3)Gal(b1-4)GlcNAc(b1-3)Gal(b1-4)Glc
# Method in brief: as §1
binder,measurement,setting,value
B1,glycan array binding signal (z-score),[1],-0.357
same,glycan array binding signal (z-score),[2],-0.375
same,glycan array binding signal (z-score),[3],-0.306
same,glycan array binding signal (z-score),[4],-0.343
same,glycan array binding signal (z-score),[5],-0.317
same,glycan array binding signal (z-score),[6],-0.325
same,glycan array binding signal (z-score),[7],-0.315
same,glycan array binding signal (z-score),[8],0.07
same,glycan array binding signal (z-score),[9],0.169
same,glycan array binding signal (z-score),[10],-0.28
same,glycan array binding signal (z-score),[11],-0.247
same,glycan array binding signal (z-score),[12],1.49
same,glycan array binding signal (z-score),[13],-0.356
same,glycan array binding signal (z-score),[14],-0.396
same,glycan array binding signal (z-score),[15],-0.35
same,glycan array binding signal (z-score),[16],-0.356
same,glycan array binding signal (z-score),[17],-0.317
same,glycan array binding signal (z-score),[18],-0.354
same,glycan array binding signal (z-score),[19],-0.353
same,glycan array binding signal (z-score),[20],-0.28
same,glycan array binding signal (z-score),[21],-0.352
same,glycan array binding signal (z-score),[22],-0.356
same,glycan array binding signal (z-score),[23],-0.307
same,glycan array binding signal (z-score),[24],-0.353
same,glycan array binding signal (z-score),[25],-0.356
same,glycan array binding signal (z-score),[26],-0.357
same,glycan array binding signal (z-score),[27],-0.358
same,glycan array binding signal (z-score),[28],-0.387
same,glycan array binding signal (z-score),[29],-0.354
same,glycan array binding signal (z-score),[30],-0.198
same,glycan array binding signal (z-score),[31],-0.352
same,glycan array binding signal (z-score),[32],0.514
same,glycan array binding signal (z-score),[33],0.098
same,glycan array binding signal (z-score),[34],-0.36
same,glycan array binding signal (z-score),[35],1.06
same,glycan array binding signal (z-score),[36],-0.303
same,glycan array binding signal (z-score),[37],-0.358
same,glycan array binding signal (z-score),[38],-0.298
